# Results: article PMC4336329 (PLoS ONE, 2015)
# In all, about 310,000 compounds went through this assay and about 2,200 (0.71%) showed an effect of 50% or more. The effect is printed as a negative number. Some of the results follow.
# Molecular target: human ether-à-go-go-related gene (hERG) potassium channel (human, UniProt Q12809)
# Experiment: primary screen, population patch clamp on CHO cells stably expressing hERG
# Chain of human ether-à-go-go-related gene (hERG) potassium channel (Q12809 whole entry, looked up): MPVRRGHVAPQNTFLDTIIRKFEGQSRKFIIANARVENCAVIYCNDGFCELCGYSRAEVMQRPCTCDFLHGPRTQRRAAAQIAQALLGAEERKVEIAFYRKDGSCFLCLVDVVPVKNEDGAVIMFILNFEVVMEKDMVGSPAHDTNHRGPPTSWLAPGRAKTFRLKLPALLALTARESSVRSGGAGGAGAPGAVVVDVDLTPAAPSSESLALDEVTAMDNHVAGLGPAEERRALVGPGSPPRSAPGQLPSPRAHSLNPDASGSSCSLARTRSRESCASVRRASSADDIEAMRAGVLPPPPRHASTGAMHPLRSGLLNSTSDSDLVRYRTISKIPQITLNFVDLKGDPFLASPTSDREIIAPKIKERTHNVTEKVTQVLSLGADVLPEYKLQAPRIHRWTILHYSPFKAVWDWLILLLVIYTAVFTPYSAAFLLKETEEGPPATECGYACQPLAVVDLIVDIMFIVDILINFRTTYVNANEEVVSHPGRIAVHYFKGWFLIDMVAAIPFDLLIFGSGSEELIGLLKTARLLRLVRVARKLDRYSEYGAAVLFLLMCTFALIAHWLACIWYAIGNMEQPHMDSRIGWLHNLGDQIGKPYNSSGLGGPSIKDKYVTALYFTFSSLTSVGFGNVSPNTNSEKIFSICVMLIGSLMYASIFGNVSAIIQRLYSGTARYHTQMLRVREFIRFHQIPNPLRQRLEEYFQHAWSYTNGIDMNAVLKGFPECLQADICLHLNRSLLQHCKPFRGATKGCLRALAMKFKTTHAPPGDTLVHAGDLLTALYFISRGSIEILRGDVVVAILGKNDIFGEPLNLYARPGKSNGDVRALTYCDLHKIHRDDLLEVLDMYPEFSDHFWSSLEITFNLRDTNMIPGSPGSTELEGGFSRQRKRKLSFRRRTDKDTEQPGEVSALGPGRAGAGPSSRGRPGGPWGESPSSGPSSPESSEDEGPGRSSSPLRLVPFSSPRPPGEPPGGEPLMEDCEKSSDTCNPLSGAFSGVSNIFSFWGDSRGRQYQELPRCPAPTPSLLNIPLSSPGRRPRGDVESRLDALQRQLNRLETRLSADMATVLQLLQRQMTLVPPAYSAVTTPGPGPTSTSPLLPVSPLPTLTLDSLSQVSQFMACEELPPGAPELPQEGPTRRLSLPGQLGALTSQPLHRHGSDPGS
row,Compound,"hERG current change (%, negative = inhibition) at 1uM"
1,O=S(=O)(NC1CCN(S(=O)(=O)c2c(F)cccc2F)C1)c1ccc2c(c1)OCCO2 (stereo not shown),8.29%
2,S=C(NCc1ccco1)Nc1cccc(Cl)c1,-6.53%
3,CCOC(=O)Cc1csc(NC(=O)Nc2cccc(OC)c2)n1,8.01%
4,COc1cc(/C=C/C(=O)N[C@@H](Cc2c[nH]c3ccccc23)C(=O)O)ccc1O,9.64%
5,CCc1cccc(NC(=O)CCCn2c(=O)[nH]c3ccsc3c2=O)c1,19.3%
6,COc1ccc(C(C)NC(=S)NC2CCCC2)cc1OC (stereo not shown),5.57%
7,CCOc1cc(/C=N/N=C2/NC(=O)C(CC(=O)O)S2)ccc1OCc1ccc(Cl)cc1 (stereo not shown),4.76%
8,O=C(CSCc1cc(=O)[nH][nH]1)Nc1ccc(F)cc1,36.6%
9,O=C(NCCCNC(=O)c1cc(Cl)ccc1Cl)c1cnccn1,8.38%
10,O=C(COC(=O)C1(c2ccccc2F)CCCC1)NCc1ccc2c(c1)OCO2,2.35%
11,CCOC(=O)C1=C(COC(=O)CCNS(=O)(=O)c2ccc(C)c(C)c2)NC(=O)NC1C (stereo not shown),10.7%
12,Cc1ccc(S(=O)(=O)N2CCCCC2)cc1NC(=O)Cn1ccc(C(F)(F)F)n1,-3.5%
13,CCOC(=O)c1sc(NC(=O)C2=COCCO2)c(C#N)c1C,13.2%
14,COc1cc2c(cc1OC)CC(C(=O)NCc1ccccc1)NC2 (stereo not shown),14.5%
15,Cc1cc(C=O)c(C)n1C1CCCCC1,8.41%
16,CCCS(=O)(=O)N1CCN(c2ccccc2F)CC1,14%
17,O=C(Cc1ccc(Br)cc1)OCC(=O)N1CCc2ccccc2C1,13.8%
18,CCOc1c(C)cnc2c1c(=O)n(Cc1ccccc1Cl)c(=O)n2C,14.1%
19,COc1cc(OC)c(OC)cc1/C=C1/C(=O)N=C(N)N1C,-7.58%
20,O=C(Cn1c(S(=O)(=O)Cc2ccccc2)nc2ccccc21)N1CCCCC1,-0.347%
21,Cc1ccc(S(=O)(=O)NC(=O)c2cccc(C)c2)cc1,10.3%
22,Cc1ccc(C(C(=O)NCc2ccco2)N(C(=O)CNC(=O)c2cccs2)c2ccc(C)cc2)cc1 (stereo not shown),29.1%

row,Compound,"hERG current change (%, negative = inhibition) at 1uM"
1,Cc1cc(C)cc(C(=O)NCC(=O)NCCc2c[nH]c3ccccc23)c1,14.5%
2,COc1cc(S(=O)(=O)Nc2ncn[nH]2)ccc1Cl,13.5%
3,Cc1ccccc1CNC(=O)c1cc(COc2ccc(F)cc2F)on1,12.1%
4,COC(=O)c1ccc2c(=O)n(Cc3ccc(C(=O)NCCCN4CCC(C)CC4)cc3)c(=S)[nH]c2c1,11.6%
5,Cc1ccc(NC(=O)CSc2nncn2-c2ccccn2)cc1Cl,16.5%
6,CCN(C(=O)CN1C(=O)NC(CCSC)C1=O)C1CCS(=O)(=O)C1 (stereo not shown),2.9%
7,Cc1cccc(N2C(=O)/C(=C\c3ccc(OC(F)F)cc3)c3ccccc3C2=O)c1,11.9%
8,CC(C)(C)C(=O)OC/C(N)=N/OC(=O)c1ccccc1,11%
9,CN(C(=O)COC(=O)c1ccc([N+](=O)[O-])cc1Cl)C1CCCCC1,-8.94%
10,Cc1c(S(=O)(=O)Nc2cccc(Cl)c2)c(=O)n(C)c(=O)n1C,10.7%
11,Cc1cc(S(=O)(=O)N2CC(=O)N(CCc3ccccc3)C(=O)C2)ccc1F,13.7%
12,Cc1cccc(N2C(=O)C(Cl)=C(Nc3c(C)n(C)n(-c4ccccc4)c3=O)C2=O)c1C,15.3%
13,COc1ccc(-c2oc3ccccc3c2C(=O)OCc2ccccc2)cc1,14%
14,CC(=O)Nc1cccc(NC(=O)CS(=O)(=O)c2cn(CC(=O)N(C(C)C)C(C)C)c3ccccc23)c1,11.9%
15,COc1cc(C2Sc3ccccc3NC3=C2C(=O)OC3)cc(OC)c1OC (stereo not shown),0.302%
16,COc1ccc(CNC(=O)CSc2nnc(NC(=O)C3CC3)s2)cc1,11.5%
17,Cc1cc(NC(=O)CCC(=O)N(CC(=O)NC2CCCC2)c2ccc(Cl)c(Cl)c2)no1,0.544%
18,CCCCCCCc1c(C#N)c(N)[nH]c(=S)c1C#N,15.7%
19,O=Cc1cccc(OC(=O)/C=C/c2ccco2)c1,16.1%
20,CCCCCC(=O)N1CC2(CC(c3cccc(NC(=O)CC)c3)=NO2)C[C@H]1C(N)=O (stereo partly shown),3.29%
21,C/C(=C\C(=O)c1cccnc1)Nc1ccc(O)cc1,-11.6%
22,Cc1cc(NC(=O)CSc2nnc(C3COc4ccccc4O3)n2C)no1 (stereo not shown),6.02%

row,Compound,"hERG current change (%, negative = inhibition) at 1uM"
1,COc1ccc(C(=O)NC2CC(C)(C)Cc3occc32)cc1 (stereo not shown),-7.54%
2,CCCCCCCCCCCCCCCC[n+]1ccc(C(N)=O)cc1.[Br-],11.3%
3,CCOc1ccccc1NC(=O)CN(c1ccc(OC)cc1)S(=O)(=O)c1c(C)noc1C,2.41%
4,O=C(NC1CCCC1)c1ccc(CS(=O)Cc2ccccc2Cl)o1 (stereo not shown),-9.85%
5,COCC1CCCN(C(=O)c2ccc3oc(CCCc4ccccc4)nc3c2)C1 (stereo not shown),0.265%
6,CCc1cc(Cn2nc(-c3ccccc3)cc2C(=O)NCC2CC2)on1,-15.4%
7,CCN(CC(=O)N1CCOCC1)S(=O)(=O)c1ccc2ccccc2c1,18.4%
8,COc1cccc(CN2CCN(S(=O)(=O)c3ccc(NC(C)=O)cc3)CC2)c1OC.O=C(O)C(=O)O,10.4%
9,CC(C)(C)n1nnnc1C(c1cccs1)N1CCN(c2ccccc2)CC1 (stereo not shown),-0.168%
10,N#Cc1c(C#N)c(O)c2ccccc2c1O,11.5%
11,Nc1nnn(CC(=O)N/N=C/c2cccc(Cl)c2)n1,6.17%
12,CC1(C)CC(=O)C=C(Nc2ccc3c(c2)OCCO3)C1,9.09%
13,O=C(N/C(=C\c1ccc(F)cc1)C(=O)N1CCCCCC1)c1ccccc1,-0.76%
14,COc1ccccc1CC(=O)Nc1ccc(-c2noc(COc3cccc(C)c3C)n2)cc1,15%
15,COc1ccc(-n2c(=O)c3c4c(sc3n(CC(N)=O)c2=O)CCCCC4)cc1,12.7%
16,Cc1ccc2c(c1)cc1c(=O)n(CC(=O)N3CCCC3)nc(C)n12,20.1%
17,NC1=NC2=C(CCCC2)C2(CCCCC2)S1,-3.29%
18,CCOC(=O)c1cnn(-c2ccccc2)c1-n1cccc1C(=O)C(=O)Nc1ccc(OC)cc1,9.89%
19,O=C(CCn1c(=O)oc2ccccc21)Nc1nc2ccccc2s1,-1.36%
20,CC1=NN(c2nc(-c3ccc(C)cc3)cs2)C(=O)C1N=Nc1cccc(C)c1 (stereo not shown),9.3%
21,O=C1c2ccccc2C2(c3ccccc3)NCCN12 (stereo not shown),13%
22,CC(C)CC1Nc2ccc(C(=O)NCCCN3CCCCC3C)cc2NC1=O (stereo not shown),8.78%

row,Compound,"hERG current change (%, negative = inhibition) at 1uM"
1,COc1ccc(C(=O)NCc2nnc(SCC(=O)Nc3ccccc3F)o2)cc1,-6.04%
2,Cc1c(NC(=O)C(C)OC(=O)CCc2ccccc2)c(=O)n(-c2ccccc2)n1C (stereo not shown),10.8%
3,Cc1csc2ncnc(N3CCN(S(=O)(=O)c4cccc(C(F)(F)F)c4)CC3)c12,-0.0341%
4,COc1ccc(CC(=O)Oc2ccccc2[N+](=O)[O-])cc1,10.8%
5,COc1cccc(N2CCN(CC(=O)Nc3ccnn3C3CCCC3)CC2)c1,6.03%
6,CC(C)N1CC(C(=O)Nc2cccc([N+](=O)[O-])c2)CC1=O (stereo not shown),14.6%
7,O=C(COC(=O)CCC(=O)c1cccs1)NCc1ccccc1,25.6%
8,COc1ccccc1NS(=O)(=O)c1cc(NC(=O)c2cc3ccccc3oc2=O)ccc1C,12.3%
9,O=C(CN1C(=O)c2cccc3cccc1c23)N1CCN(c2cccc(Cl)c2)CC1,0.681%
10,CC(=O)c1cccc(NC(=O)c2ccc3c(c2)C(=O)N(Cc2cccnc2)C3=O)c1,11.7%
11,COc1ccc(S(=O)(=O)N2CCN(c3ccc(F)cc3)CC2)cc1C(=O)N1CCOCC1,14%
12,CCCCn1c(O)c(C(C)=Nc2cccc(C(=O)O)c2)c(=O)[nH]c1=O,1.18%
13,CN1CCNC(=O)C1CC(=O)NCCC1=CCCCC1 (stereo not shown),9.41%
14,CCOC(=O)C1CCN(CCC(=O)Nc2cccc(C)c2)CC1.Cl,-32.6%
15,Cc1ccc(S(=O)(=O)CCC(=O)OCc2cc(C)ccc2C)cc1,8.15%
16,O=C(COC(=O)Cc1cccc(C(F)(F)F)c1)Nc1ccc2c(c1)OCCO2,11.3%
17,CNC(=O)c1c(NC(=O)c2ccco2)sc(C)c1C,11.5%
18,CCN(CC)S(=O)(=O)c1ccc(/C=C/C(=O)NC2CCCCC2)cc1,11.4%
19,CN(c1ccccc1C(=O)NCc1ccccn1)S(C)(=O)=O,4.85%
20,CC1(C)O[C@@H]1COc1c2ccoc2cc2oc(=O)ccc12,5.25%
21,COc1ccc2cc(OCC(=O)NNC(=O)Nc3ccc(C(C)=O)cc3)ccc2c1,10.7%
22,COc1ccc(/C=C/C(=O)NCC(=O)N/N=C/c2ccc(OC)cc2)cc1,7.83%
